Changes are numbered by the printed parent chain; changes in the protein carry UniProt numbers. The list shows a part of the results.

T1: RBFOX1 RRM (Homo sapiens, UniProt Q9NWB1 109-208)
T1 sequence: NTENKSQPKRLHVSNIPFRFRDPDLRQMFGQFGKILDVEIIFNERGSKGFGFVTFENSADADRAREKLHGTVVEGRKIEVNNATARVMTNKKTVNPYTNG

B1: CCAGAUC (DNA:RNA)
RNA: GGGAGACCGGAAUUCAGAUUGUCCCCAGAUCUUAAAUCCCGUCGUAGCCACCA
DNA 1: CAATCTGAATTCCGGTCTCCC
DNA 2: TGGTGGCTACGACGGGATT
B2: ACGAGAA (DNA:RNA)
RNA: B1 RNA with C25A, A27G, G28A, A29G, U30A, C31A
DNA 1: CAATCTGAATTCCGGTCTCCC
DNA 2: TGGTGGCTACGACGGGATT
B3: UUGAUCU (DNA:RNA)
RNA: GGGAGACCGGAAUUCAGAUUGUCCUUGAUCUUUAAAUCCCGUCGUAGCCACCA
DNA 1: CAATCTGAATTCCGGTCTCCC
DNA 2: TGGTGGCTACGACGGGATT
B4: CCUAGGG (DNA:RNA)
RNA: B1 RNA with A27U, G28A, A29G, U30G, C31G
DNA 1: CAATCTGAATTCCGGTCTCCC
DNA 2: TGGTGGCTACGACGGGATT
B5: GCCAUAA (DNA:RNA)
RNA: B3 RNA with U25G, U26C, G27C, C30A, U31A
DNA 1: CAATCTGAATTCCGGTCTCCC
DNA 2: TGGTGGCTACGACGGGATT
B6: UAAUCUC (DNA:RNA)
RNA: B1 RNA with C25U, C26A, G28U, A29C
DNA 1: CAATCTGAATTCCGGTCTCCC
DNA 2: TGGTGGCTACGACGGGATT
B7: GGAAAAC (DNA:RNA)
RNA: B1 RNA with C25G, C26G, G28A, U30A
DNA 1: CAATCTGAATTCCGGTCTCCC
DNA 2: TGGTGGCTACGACGGGATT
B8: UUGUAGG (DNA:RNA)
RNA: B3 RNA with A28U, U29A, C30G, U31G
DNA 1: CAATCTGAATTCCGGTCTCCC
DNA 2: TGGTGGCTACGACGGGATT
B9: UAUAUCG (DNA:RNA)
RNA: B3 RNA with U26A, G27U, U31G
DNA 1: CAATCTGAATTCCGGTCTCCC
DNA 2: TGGTGGCTACGACGGGATT
B10: ACUGUCC (DNA:RNA)
RNA: B1 RNA with C25A, A27U, A29U, U30C
DNA 1: CAATCTGAATTCCGGTCTCCC
DNA 2: TGGTGGCTACGACGGGATT
B11: UUUGUUC (DNA:RNA)
RNA: B1 RNA with C25U, C26U, A27U, A29U
DNA 1: CAATCTGAATTCCGGTCTCCC
DNA 2: TGGTGGCTACGACGGGATT
B12: GAAUUAC (DNA:RNA)
RNA: B1 RNA with C25G, C26A, G28U, A29U, U30A
DNA 1: CAATCTGAATTCCGGTCTCCC
DNA 2: TGGTGGCTACGACGGGATT
B13: ACUAUAG (DNA:RNA)
RNA: B3 RNA with U25A, U26C, G27U, C30A, U31G
DNA 1: CAATCTGAATTCCGGTCTCCC
DNA 2: TGGTGGCTACGACGGGATT
B14: UUGGGUC (DNA:RNA)
RNA: B1 RNA with C25U, C26U, A27G, A29G
DNA 1: CAATCTGAATTCCGGTCTCCC
DNA 2: TGGTGGCTACGACGGGATT
B15: CUCAGCU (DNA:RNA)
RNA: B3 RNA with U25C, G27C, U29G
DNA 1: CAATCTGAATTCCGGTCTCCC
DNA 2: TGGTGGCTACGACGGGATT
B16: UAGACGA (DNA:RNA)
RNA: B3 RNA with U26A, U29C, C30G, U31A
DNA 1: CAATCTGAATTCCGGTCTCCC
DNA 2: TGGTGGCTACGACGGGATT
B17: AGGCAUG (DNA:RNA)
RNA: B1 RNA with C25A, C26G, A27G, G28C, C31G
DNA 1: CAATCTGAATTCCGGTCTCCC
DNA 2: TGGTGGCTACGACGGGATT
B18: UAACCGC (DNA:RNA)
RNA: B1 RNA with C25U, C26A, G28C, A29C, U30G
DNA 1: CAATCTGAATTCCGGTCTCCC
DNA 2: TGGTGGCTACGACGGGATT
B19: CCUAGAC (DNA:RNA)
RNA: B1 RNA with A27U, G28A, A29G, U30A
DNA 1: CAATCTGAATTCCGGTCTCCC
DNA 2: TGGTGGCTACGACGGGATT
B20: CCGACUA (DNA:RNA)
RNA: B1 RNA with A27G, G28A, A29C, C31A
DNA 1: CAATCTGAATTCCGGTCTCCC
DNA 2: TGGTGGCTACGACGGGATT
B21: UAACUUA (DNA:RNA)
RNA: B1 RNA with C25U, C26A, G28C, A29U, C31A
DNA 1: CAATCTGAATTCCGGTCTCCC
DNA 2: TGGTGGCTACGACGGGATT
B22: UAUACAA (DNA:RNA)
RNA: B3 RNA with U26A, G27U, U29C, C30A, U31A
DNA 1: CAATCTGAATTCCGGTCTCCC
DNA 2: TGGTGGCTACGACGGGATT
B23: AUCAGUU (DNA:RNA)
RNA: B3 RNA with U25A, G27C, U29G, C30U
DNA 1: CAATCTGAATTCCGGTCTCCC
DNA 2: TGGTGGCTACGACGGGATT
B24: UUUCCGA (DNA:RNA)
RNA: B3 RNA with G27U, A28C, U29C, C30G, U31A
DNA 1: CAATCTGAATTCCGGTCTCCC
DNA 2: TGGTGGCTACGACGGGATT
B25: UCUAGCA (DNA:RNA)
RNA: B3 RNA with U26C, G27U, U29G, U31A
DNA 1: CAATCTGAATTCCGGTCTCCC
DNA 2: TGGTGGCTACGACGGGATT
B26: UGUAAAC (DNA:RNA)
RNA: B1 RNA with C25U, C26G, A27U, G28A, U30A
DNA 1: CAATCTGAATTCCGGTCTCCC
DNA 2: TGGTGGCTACGACGGGATT
B27: CAGUUUG (DNA:RNA)
RNA: B1 RNA with C26A, A27G, G28U, A29U, C31G
DNA 1: CAATCTGAATTCCGGTCTCCC
DNA 2: TGGTGGCTACGACGGGATT
B28: AUUAUCC (DNA:RNA)
RNA: B3 RNA with U25A, G27U, U31C
DNA 1: CAATCTGAATTCCGGTCTCCC
DNA 2: TGGTGGCTACGACGGGATT
B29: CCCCUCU (DNA:RNA)
RNA: B3 RNA with U25C, U26C, G27C, A28C
DNA 1: CAATCTGAATTCCGGTCTCCC
DNA 2: TGGTGGCTACGACGGGATT
B30: CCGGCCA (DNA:RNA)
RNA: B1 RNA with A27G, A29C, U30C, C31A
DNA 1: CAATCTGAATTCCGGTCTCCC
DNA 2: TGGTGGCTACGACGGGATT
B31: AAGGAGU (DNA:RNA)
RNA: B1 RNA with C25A, C26A, A27G, U30G, C31U
DNA 1: CAATCTGAATTCCGGTCTCCC
DNA 2: TGGTGGCTACGACGGGATT

The assay has as its target T1, RBFOX1 RRM. As to the kind of experiment: EMSA; HiTS-Eq, 1 nM pool, 10 min; buffer printed only for the single-RNA assays: 10 mM Tris pH 7.5, 150 mM NaCl, 3.4 mM EDTA, 0.001% NP-40, 30 C. Particulars: tags: His6 N-terminal (pET28a); label: 5' 32P. In outline:
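Purified RbFox RRM (wild type or mutant) was equilibrated for 10 min in 50 µL with 1 nM of a 5′-radiolabelled pool of RNA with 7 randomized nucleotides, its flanks annealed to DNA oligonucleotides, across increasing protein concentrations. Free RNA was separated by 8% native PAGE, excised, reverse-transcribed, PCR-barcoded and sequenced on an Illumina HiSeq 2500. Relative association constants came from read-count changes of each variant against the control reaction, normalised to the cognate motif.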
In general terms: A gel shift assay detects complexes by their altered migration in electrophoresis.
For the molecule B1, the binding signal was 0.0066 KA relative to UGCAUGU.
B2: the binding signal was 0.00238 KA relative to UGCAUGU.
Consider B3, for which the binding signal was 0.0139 KA relative to UGCAUGU.
In the case of B4, the binding signal is 0.000444 KA relative to UGCAUGU.
For B5, the binding signal was 0.00219 KA relative to UGCAUGU.
As for B6, the binding signal was 0.00476 KA relative to UGCAUGU.
Under B7 stands 0.00279 KA relative to UGCAUGU.
Consider B8, for which the binding signal is 0.00955 KA relative to UGCAUGU.
Turning to B9, the binding signal is 0.0117 KA relative to UGCAUGU.
As to B10, the binding signal is 0.00488 KA relative to UGCAUGU.
On to B11, for which the binding signal is 0.0226 KA relative to UGCAUGU.
On to B12, for which the binding signal was 0.00361 KA relative to UGCAUGU.
In the case of B13, the binding signal is 0.00317 KA relative to UGCAUGU.
On to B14, for which the binding signal is 0.0314 KA relative to UGCAUGU.
On to B15, for which the binding signal was 0.00638 KA relative to UGCAUGU.
Under B16 stands 0.00635 KA relative to UGCAUGU; under B17, 0.662 KA relative to UGCAUGU; under B18, 0.0039 KA relative to UGCAUGU.
For B19, the binding signal is 0.00636 KA relative to UGCAUGU.
With B20, the binding signal was 0.00505 KA relative to UGCAUGU.
Consider B21, for which the binding signal was 0.0049 KA relative to UGCAUGU.
Take B22: the binding signal is 0.00283 KA relative to UGCAUGU.
Regarding B23, the binding signal was 0.0026 KA relative to UGCAUGU.
For the molecule B24, the binding signal was 0.00826 KA relative to UGCAUGU.
The same measure for B25: 0.0115 KA relative to UGCAUGU; for B26: 0.0104 KA relative to UGCAUGU.
With B27, the binding signal was 0.0144 KA relative to UGCAUGU.
In the case of B28, the binding signal is 0.00128 KA relative to UGCAUGU.
As to B29, the binding signal is 0.00568 KA relative to UGCAUGU.
For B30, the binding signal was 0.00886 KA relative to UGCAUGU.
With B31, the binding signal was 0.00853 KA relative to UGCAUGU.

The values above are taken from paper PMC9911399, “Two distinct binding modes provide the RNA-binding protein RbFox with extraordinary sequence specificity”.
